{"source": "PubChem BioAssay AID504339", "about": "(National Center for Advancing Translational Sciences (NCATS), 2011)", "note": "Screen size: about 390,000 compounds; about 17,000 (4.4%) were called active. The shares of active, inactive and inconclusive entries below differ from those in the screen. The call rests on the fitted dose curve; in most records, active means well fitted inhibition curve with a large enough effect; inconclusive means small, poorly fitted or top-dose-only effect; inactive means no such curve, though single readings can be large or run the other way. A potency beside an inconclusive call is a rough fit, not a confirmed value. Potency means the concentration at half of the fitted maximal effect; tags describe the fitted curve by direction and shape.", "data": [{"target": "Lysine-specific demethylase 4A (Homo sapiens) (UniProt O75164)", "sequence (O75164 whole entry, looked up, the tested form may be a part)": "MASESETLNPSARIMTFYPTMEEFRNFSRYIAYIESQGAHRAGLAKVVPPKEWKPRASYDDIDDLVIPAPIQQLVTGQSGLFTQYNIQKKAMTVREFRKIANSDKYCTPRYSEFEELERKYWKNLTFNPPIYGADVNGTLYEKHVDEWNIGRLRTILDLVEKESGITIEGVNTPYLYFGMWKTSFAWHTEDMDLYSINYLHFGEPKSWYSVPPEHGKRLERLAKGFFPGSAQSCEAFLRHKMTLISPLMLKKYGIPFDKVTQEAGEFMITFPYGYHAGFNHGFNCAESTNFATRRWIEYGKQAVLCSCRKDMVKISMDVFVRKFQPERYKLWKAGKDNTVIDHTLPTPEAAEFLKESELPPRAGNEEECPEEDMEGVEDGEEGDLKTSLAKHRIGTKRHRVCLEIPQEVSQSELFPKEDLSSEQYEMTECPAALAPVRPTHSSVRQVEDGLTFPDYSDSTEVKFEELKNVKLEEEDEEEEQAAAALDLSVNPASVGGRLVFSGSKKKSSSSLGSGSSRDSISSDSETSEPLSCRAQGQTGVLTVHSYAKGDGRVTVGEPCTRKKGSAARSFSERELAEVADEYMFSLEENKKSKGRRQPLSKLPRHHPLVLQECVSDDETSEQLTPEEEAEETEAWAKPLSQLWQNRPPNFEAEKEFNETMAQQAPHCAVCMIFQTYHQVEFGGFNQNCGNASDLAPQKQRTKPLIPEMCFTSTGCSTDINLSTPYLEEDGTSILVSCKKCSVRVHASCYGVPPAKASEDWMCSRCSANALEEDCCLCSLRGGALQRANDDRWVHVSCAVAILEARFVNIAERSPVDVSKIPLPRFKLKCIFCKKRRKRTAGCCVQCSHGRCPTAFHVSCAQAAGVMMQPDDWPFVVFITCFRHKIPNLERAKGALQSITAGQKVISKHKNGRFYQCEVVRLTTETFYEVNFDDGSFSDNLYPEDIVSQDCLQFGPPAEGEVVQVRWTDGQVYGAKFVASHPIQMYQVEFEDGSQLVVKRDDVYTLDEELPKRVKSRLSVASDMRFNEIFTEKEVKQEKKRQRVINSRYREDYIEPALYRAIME", "assay": "qHTS Assay for Inhibitors of JMJD2A-Tudor Domain; further: nearly all actives have a fitted effect of over 50% in size", "settings": "AlphaScreen JMJD2A-Tudor / H3K4me3 peptide binding; series mostly up to 114 µM", "values": [{"smiles": "COc1ccc(C2CC(c3ccc(Cl)cc3Cl)Nc3nc(N)nn32)cc1OC", "note": "(stereo not drawn)", "Potency": "inconclusive: 56.2 µM [inhibitor, partial curve, poor fit]"}, {"smiles": "S=C(NCCCc1cnc[nH]1)NCCCN(Cc1ccc(Cl)cc1)c1ccc(-c2ccccc2)cn1", "Potency": "active: 50.1 µM"}, {"smiles": "CCN(CC)S(=O)(=O)c1ccc(S(=O)(=O)N2CCC(N3CCCCC3)CC2)cc1", "Potency": "inactive"}, {"smiles": "CCC1=Nc2cc(C(=O)NCc3ccco3)ccc2Sc2ccc(C)cc21", "Potency": "inconclusive: 14.1 µM [inhibitor, full curve, poor fit]"}, {"smiles": "CCOc1ccc(C2c3[nH]c4ccccc4c3CCN2C(=O)Cn2cncn2)cc1", "note": "(stereo not drawn)", "Potency": "inconclusive: 63.1 µM [inhibitor, partial curve]"}, {"smiles": "Cc1cc(O)c(C(C[N+](=O)[O-])c2ccc(Cl)cc2Cl)c(=O)o1", "note": "(stereo not drawn)", "Potency": "inactive"}, {"smiles": "O=C(c1cccs1)N1CCc2c([nH]c3ccccc23)C1c1ccccn1", "note": "(stereo not drawn)", "Potency": "inconclusive: 50.1 µM [inhibitor, partial curve]"}, {"smiles": "CN(C)C(CNC(=O)c1cccc(S(=O)(=O)N2CCN(c3ccccc3)CC2)c1)c1ccccc1", "note": "(stereo not drawn)", "Potency": "inconclusive: 56.2 µM [inhibitor, partial curve]"}, {"smiles": "CCOc1ccccc1NC1c2ccccc2C(=O)N1c1ccc(C)cn1", "note": "(stereo not drawn)", "Potency": "inconclusive: 35.5 µM [inhibitor, full curve, poor fit]"}, {"smiles": "Cn1cccc1/C=C1\\SC(=S)N(NC(=O)c2ccc(F)cc2)C1=O", "Potency": "inconclusive: 12.6 µM [inhibitor, full curve, poor fit]"}, {"smiles": "Cc1ccc(C)c(-c2nnc(NC(=O)c3ccc([N+](=O)[O-])o3)o2)c1", "Potency": "inconclusive: 89.1 µM [inhibitor, single point]"}, {"smiles": "COc1ccc(C2=NN(CN3C(=O)C(=O)c4ccccc43)C(c3ccc(C)cc3)C2)cc1", "note": "(stereo not drawn)", "Potency": "inconclusive: 89.1 µM [inhibitor, partial curve, poor fit]"}, {"smiles": "O=C(N/N=C/c1ccc([N+](=O)[O-])o1)c1cc2c(ccc3ccccc32)o1", "Potency": "inconclusive: 56.2 µM [inhibitor, partial curve, poor fit]"}, {"smiles": "Cc1nnc(SCC(=O)N(Cc2ccccc2)C(C)(C)C)[nH]c1=O", "Potency": "inactive"}, {"smiles": "O=C(c1cn(-c2ccccc2)nc1-c1ccc(F)cc1)N1CCCCC1", "Potency": "inconclusive: 39.8 µM [inhibitor, single point]"}, {"smiles": "COc1cc2nc(CN3CCN(S(=O)(=O)c4ccccc4C(F)(F)F)CC3)[nH]c(=O)c2cc1OC", "Potency": "inconclusive: 3.16 µM [inhibitor, partial curve, poor fit]"}, {"smiles": "CCOc1ccccc1C1C2C(=O)N(c3ccccc3)C(=O)C2ON1c1ccccc1", "note": "(stereo not drawn)", "Potency": "inactive"}, {"smiles": "O=S(=O)(c1cccc2nonc12)N1CCN(c2cccc(Cl)c2)CC1", "Potency": "inconclusive: 20 µM [inhibitor, full curve, poor fit]"}, {"smiles": "CC(C)Cc1ccc(S(=O)(=O)N2CCCC2)cc1", "Potency": "inactive"}, {"smiles": "C[C@@H](NCCCn1ccc(NC(=O)OCc2ccccc2)nc1=O)c1cccc2ccccc12", "Potency": "inactive"}, {"smiles": "O=C(CSc1ncc(CO)n1Cc1ccccc1)Nc1nc2ccccc2s1", "Potency": "inconclusive: 63.1 µM [inhibitor, partial curve]"}, {"smiles": "COC(=O)C1=C(C(=O)OC)SC2(S1)C(C(=O)OC)=C(C(=O)OC)SC1=C2c2cccc(C)c2NC1(C)C", "Potency": "inconclusive: 11.2 µM [inhibitor, partial curve]"}, {"smiles": "Cn1cc(CN2CCC(n3nccc3NC(=O)c3ccccc3Cl)CC2)c2ccccc21", "Potency": "inconclusive: 50.1 µM [inhibitor, partial curve]"}, {"smiles": "CN1CCN(C(c2ccccc2)c2ccccc2)CC1", "Potency": "inactive"}, {"smiles": "CCOc1ccc(C2c3c(ncn(-c4ccccc4)c3=N)Oc3ccc4ccccc4c32)cc1OCC", "note": "(stereo not drawn)", "Potency": "active: 39.8 µM"}, {"smiles": "CCOC(=O)c1ccc(NC(=O)C(CC)CC)cc1", "Potency": "inconclusive: 3.55 µM [inhibitor, partial curve, poor fit]"}, {"smiles": "O=c1[nH]c(-c2ccc(F)cc2)nc2c1sc(=S)n2-c1ccccc1", "Potency": "inconclusive: 56.2 µM [inhibitor, partial curve]"}, {"smiles": "COCc1nnc(NC(=O)c2ccccc2Oc2ccccc2)s1", "Potency": "inactive"}, {"smiles": "Cc1ccc(-c2nc3n(n2)C(c2ccccc2C)C=C(c2ccc(Cl)cc2)N3)cc1", "note": "(stereo not drawn)", "Potency": "inconclusive: 3.98 µM [inhibitor, partial curve, poor fit]"}, {"smiles": "Clc1cccc(C2Nc3cccc4cccc(c34)N2)c1Cl", "Potency": "active: 50.1 µM"}, {"smiles": "COc1ccc(NC(C(=O)Nc2cccc(C(C)=O)c2)c2ccccc2)cc1", "note": "(stereo not drawn)", "Potency": "active: 17.8 µM"}, {"smiles": "CCOC(=O)c1csc(-n2nc(C)cc2C(F)(F)F)n1", "Potency": "inactive"}, {"smiles": "COc1ccc(OCC(=O)NCCCCCCNC(=O)COc2ccc(OC)cc2)cc1", "Potency": "inconclusive: 3.98 µM [inhibitor, single point]"}, {"smiles": "Cc1ccc(CN2C(=O)c3ccccc3Sc3ccc(C(=O)NC4CCCCC4)cc32)cc1", "Potency": "inactive"}, {"smiles": "CCC1(C)NC(=O)N(CC(=O)Nc2sc3c(c2C(=O)OC)CCCCC3)C1=O", "note": "(stereo not drawn)", "Potency": "inconclusive: 56.2 µM [inhibitor, partial curve]"}, {"smiles": "Cc1cc2c3c(c1C)C(=O)C(=O)N3C(C)(C)CC2C", "note": "(stereo not drawn)", "Potency": "inconclusive: 56.2 µM [inhibitor, partial curve, poor fit]"}, {"smiles": "COCCn1c(C)cc(C(=O)COC(=O)c2cc3c(s2)CCC3)c1C", "Potency": "active: 35.5 µM"}, {"smiles": "O=[N+]([O-])c1ccc(/C=N/Nc2nc(N3CCCCCC3)nc(N3CCCCCC3)n2)o1", "Potency": "inconclusive: 17.8 µM [inhibitor, single point]"}, {"smiles": "CC(/C=N/n1c(-c2cccnc2)n[nH]c1=S)=C\\c1ccccc1", "Potency": "active: 20 µM"}, {"smiles": "COc1cccc(C(=O)NCCSCc2ccccc2Cl)c1", "Potency": "inactive"}, {"smiles": "Cc1ccc(C)c(N2CCN(C(=O)c3cc4ccc5cccnc5c4[nH]3)CC2)c1", "Potency": "inconclusive: 35.5 µM [inhibitor, partial curve]"}, {"smiles": "S=C(NCCCN1CCOCC1)N1CCN(c2nc(-c3ccccc3)cs2)CC1", "Potency": "inconclusive: 31.6 µM [inhibitor, full curve]"}, {"smiles": "Cn1c(=O)c2c(SCC(=O)N3CCOCC3)nc(-c3ccccc3Cl)nc2n(C)c1=O", "Potency": "inactive"}]}]}
